The text below walks through data of paper PMC5343488, “Epilepsy and intellectual disability linked protein Shrm4 interaction with GABABRs shapes inhibitory neurotransmission” (Nature Communications, 2017).

The chains behind the UniProt entries cited, without tags or fusion partners. Residues count along the entry.
UniProt Q9UBS5, residues 20-961: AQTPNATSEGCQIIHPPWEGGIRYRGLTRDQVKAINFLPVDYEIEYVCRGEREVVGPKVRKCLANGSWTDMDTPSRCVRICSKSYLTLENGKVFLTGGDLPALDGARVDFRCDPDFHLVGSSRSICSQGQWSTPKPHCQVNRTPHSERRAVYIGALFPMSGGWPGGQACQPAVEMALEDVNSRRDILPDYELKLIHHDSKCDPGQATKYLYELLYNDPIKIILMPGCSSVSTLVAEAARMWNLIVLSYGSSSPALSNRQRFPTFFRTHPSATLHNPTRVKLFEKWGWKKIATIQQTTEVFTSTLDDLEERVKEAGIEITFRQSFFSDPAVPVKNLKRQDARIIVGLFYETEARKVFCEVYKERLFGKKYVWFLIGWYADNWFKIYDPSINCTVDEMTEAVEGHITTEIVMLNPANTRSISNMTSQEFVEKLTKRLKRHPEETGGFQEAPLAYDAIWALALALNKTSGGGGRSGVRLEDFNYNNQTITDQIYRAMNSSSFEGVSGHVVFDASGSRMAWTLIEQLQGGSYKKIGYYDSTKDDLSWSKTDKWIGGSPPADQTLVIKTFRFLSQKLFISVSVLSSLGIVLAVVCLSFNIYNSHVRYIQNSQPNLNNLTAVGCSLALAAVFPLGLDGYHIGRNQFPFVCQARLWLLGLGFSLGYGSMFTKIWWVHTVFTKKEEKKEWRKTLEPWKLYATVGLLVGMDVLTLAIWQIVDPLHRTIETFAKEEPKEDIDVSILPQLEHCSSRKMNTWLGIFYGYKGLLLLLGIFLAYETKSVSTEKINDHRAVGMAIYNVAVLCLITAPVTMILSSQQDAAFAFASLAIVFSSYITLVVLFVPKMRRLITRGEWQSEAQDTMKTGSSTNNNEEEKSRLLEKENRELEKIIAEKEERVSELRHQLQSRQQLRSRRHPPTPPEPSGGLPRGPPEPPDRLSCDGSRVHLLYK

Test in all cases: co-IP; lysates of transfected HEK293 cells; antibody to the tag of Shrm4 (HA, GFP, V5) at 4 °C overnight, protein A-agarose, western blot
One experiment deals with T1, Shrm4-V5 (human) (UniProt Q9ULL8).
T1 sequence: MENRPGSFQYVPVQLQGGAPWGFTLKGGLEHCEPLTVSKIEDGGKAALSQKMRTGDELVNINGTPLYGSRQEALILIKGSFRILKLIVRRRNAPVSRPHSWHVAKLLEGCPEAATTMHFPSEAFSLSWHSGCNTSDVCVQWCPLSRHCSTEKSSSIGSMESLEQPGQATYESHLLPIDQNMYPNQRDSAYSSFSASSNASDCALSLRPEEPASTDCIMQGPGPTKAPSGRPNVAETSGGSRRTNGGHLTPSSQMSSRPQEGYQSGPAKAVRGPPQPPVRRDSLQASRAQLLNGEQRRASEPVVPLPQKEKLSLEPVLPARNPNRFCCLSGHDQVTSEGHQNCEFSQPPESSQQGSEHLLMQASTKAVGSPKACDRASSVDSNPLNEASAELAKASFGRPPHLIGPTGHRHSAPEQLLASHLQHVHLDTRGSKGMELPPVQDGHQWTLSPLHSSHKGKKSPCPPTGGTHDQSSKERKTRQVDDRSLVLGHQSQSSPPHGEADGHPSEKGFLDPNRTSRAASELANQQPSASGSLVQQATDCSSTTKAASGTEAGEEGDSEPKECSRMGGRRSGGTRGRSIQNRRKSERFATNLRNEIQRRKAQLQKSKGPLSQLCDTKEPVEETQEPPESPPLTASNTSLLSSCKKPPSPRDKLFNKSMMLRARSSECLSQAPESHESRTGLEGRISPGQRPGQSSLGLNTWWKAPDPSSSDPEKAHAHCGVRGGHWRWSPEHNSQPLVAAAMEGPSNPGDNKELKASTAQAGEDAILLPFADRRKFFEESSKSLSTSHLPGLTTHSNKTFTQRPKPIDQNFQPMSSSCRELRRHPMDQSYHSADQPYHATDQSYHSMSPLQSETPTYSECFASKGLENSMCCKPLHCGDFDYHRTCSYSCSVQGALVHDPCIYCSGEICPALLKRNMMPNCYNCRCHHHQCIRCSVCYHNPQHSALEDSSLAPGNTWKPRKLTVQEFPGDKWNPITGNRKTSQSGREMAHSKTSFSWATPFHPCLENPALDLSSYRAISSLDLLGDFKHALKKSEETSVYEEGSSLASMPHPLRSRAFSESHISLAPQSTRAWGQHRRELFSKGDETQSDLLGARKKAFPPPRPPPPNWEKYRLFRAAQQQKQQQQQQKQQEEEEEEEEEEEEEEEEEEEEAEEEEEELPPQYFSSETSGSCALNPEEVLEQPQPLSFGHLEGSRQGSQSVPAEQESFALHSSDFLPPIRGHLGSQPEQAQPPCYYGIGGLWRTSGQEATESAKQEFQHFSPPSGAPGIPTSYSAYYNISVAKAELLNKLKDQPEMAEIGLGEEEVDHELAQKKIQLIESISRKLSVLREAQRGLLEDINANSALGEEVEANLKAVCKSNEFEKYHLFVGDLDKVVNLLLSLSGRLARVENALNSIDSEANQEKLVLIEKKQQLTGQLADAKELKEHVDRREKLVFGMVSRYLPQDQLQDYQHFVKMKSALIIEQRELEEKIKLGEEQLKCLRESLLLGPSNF

A further experiment has as its target T2, GFP-Shrm4 (human) (UniProt Q9ULL8).
T2 sequence: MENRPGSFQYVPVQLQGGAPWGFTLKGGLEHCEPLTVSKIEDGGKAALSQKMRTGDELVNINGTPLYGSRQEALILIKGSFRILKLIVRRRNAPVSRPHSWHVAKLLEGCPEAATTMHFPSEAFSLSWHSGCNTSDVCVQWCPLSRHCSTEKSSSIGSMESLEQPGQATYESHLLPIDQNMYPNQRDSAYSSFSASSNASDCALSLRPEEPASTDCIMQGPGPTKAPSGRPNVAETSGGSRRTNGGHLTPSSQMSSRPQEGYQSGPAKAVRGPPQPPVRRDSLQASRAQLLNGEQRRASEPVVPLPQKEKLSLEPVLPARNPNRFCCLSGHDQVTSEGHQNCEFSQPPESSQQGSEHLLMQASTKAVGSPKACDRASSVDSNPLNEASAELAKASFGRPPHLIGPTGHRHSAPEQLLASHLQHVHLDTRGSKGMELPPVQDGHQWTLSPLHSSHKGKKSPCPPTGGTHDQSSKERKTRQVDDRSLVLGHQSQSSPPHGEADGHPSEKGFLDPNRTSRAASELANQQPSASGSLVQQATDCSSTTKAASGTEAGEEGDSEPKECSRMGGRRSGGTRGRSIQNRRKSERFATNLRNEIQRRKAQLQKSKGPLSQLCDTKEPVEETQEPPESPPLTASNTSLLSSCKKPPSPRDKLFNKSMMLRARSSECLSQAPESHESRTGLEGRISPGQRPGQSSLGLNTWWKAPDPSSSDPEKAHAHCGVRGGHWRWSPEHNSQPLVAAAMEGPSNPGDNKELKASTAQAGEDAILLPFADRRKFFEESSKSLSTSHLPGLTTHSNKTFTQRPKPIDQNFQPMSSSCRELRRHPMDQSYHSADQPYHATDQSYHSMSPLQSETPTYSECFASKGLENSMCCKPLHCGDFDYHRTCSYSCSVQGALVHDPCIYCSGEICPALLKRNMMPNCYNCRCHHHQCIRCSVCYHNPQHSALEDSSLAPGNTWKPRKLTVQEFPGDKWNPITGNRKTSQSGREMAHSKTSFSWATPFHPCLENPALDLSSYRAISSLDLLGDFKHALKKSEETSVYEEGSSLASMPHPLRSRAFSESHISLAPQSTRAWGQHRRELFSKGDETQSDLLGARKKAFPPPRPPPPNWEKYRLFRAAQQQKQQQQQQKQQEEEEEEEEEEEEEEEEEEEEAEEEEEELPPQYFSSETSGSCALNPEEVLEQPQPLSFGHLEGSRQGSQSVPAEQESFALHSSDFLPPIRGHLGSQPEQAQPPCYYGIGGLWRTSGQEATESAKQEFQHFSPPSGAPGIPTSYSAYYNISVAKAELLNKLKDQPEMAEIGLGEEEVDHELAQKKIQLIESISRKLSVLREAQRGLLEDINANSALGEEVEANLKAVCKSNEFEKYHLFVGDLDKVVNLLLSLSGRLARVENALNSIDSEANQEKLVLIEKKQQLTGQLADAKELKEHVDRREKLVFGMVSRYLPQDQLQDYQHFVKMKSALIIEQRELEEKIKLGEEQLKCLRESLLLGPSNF

For another experiment, the target named is T3, HA-Shrm4 (human) (UniProt Q9ULL8).
T3 sequence: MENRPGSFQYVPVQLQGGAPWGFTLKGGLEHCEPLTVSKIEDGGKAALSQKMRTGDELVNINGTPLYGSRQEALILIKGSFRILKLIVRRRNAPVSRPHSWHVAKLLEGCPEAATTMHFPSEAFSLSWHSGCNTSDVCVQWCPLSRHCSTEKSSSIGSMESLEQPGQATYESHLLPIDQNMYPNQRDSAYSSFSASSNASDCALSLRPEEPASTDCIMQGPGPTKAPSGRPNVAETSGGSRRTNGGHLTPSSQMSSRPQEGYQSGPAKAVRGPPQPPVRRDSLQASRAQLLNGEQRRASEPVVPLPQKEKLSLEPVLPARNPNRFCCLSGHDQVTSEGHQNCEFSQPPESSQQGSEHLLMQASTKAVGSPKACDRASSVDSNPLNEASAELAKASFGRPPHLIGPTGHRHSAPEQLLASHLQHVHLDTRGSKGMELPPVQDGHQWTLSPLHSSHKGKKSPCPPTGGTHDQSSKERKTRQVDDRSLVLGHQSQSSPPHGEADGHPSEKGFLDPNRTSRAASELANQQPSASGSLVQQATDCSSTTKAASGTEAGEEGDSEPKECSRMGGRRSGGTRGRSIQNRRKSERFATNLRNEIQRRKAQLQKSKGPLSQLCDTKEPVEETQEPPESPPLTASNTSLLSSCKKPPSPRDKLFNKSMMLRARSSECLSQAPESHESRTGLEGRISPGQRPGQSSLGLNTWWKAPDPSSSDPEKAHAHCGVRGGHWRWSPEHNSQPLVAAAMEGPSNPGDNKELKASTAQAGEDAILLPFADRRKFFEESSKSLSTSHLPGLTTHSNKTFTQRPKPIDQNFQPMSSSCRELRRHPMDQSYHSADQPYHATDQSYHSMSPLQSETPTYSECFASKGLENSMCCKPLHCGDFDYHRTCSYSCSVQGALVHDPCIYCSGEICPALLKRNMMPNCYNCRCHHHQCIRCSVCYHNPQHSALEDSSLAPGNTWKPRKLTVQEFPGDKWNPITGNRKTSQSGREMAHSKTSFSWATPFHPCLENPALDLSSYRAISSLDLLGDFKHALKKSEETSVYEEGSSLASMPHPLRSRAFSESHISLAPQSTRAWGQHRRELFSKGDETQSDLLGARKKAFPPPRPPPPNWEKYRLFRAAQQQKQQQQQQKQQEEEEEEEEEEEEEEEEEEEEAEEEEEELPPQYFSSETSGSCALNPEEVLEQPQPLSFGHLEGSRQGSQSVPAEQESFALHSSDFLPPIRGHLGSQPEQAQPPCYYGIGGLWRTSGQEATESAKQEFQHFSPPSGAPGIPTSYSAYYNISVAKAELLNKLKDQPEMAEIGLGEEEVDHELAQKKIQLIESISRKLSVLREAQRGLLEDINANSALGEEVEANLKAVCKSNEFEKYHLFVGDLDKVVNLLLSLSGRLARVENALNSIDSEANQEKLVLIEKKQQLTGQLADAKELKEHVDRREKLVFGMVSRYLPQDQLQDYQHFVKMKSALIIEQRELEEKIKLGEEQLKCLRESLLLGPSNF

Results are given in words; binding and its absence hold for the method and conditions named. In cells and extracts the contact can be indirect. Some results given as binding are weak or reduced against the parent protein; the word gives no strength. Tags and fused reporters may be left off the sequences shown.

“myc-tagged full-length GABAB1a (from UniProt Q9UBS5 20-961) (receptor)”: the binding result in the experiment with Shrm4-V5 (human) and with GFP-Shrm4 (human) was “binds” each time.

B1: GABAB2-Flag (receptor, UniProt O75899 42-941)
chain: WARGAPRPPPSSPPLSIMGLMPLTKEVAKGSIGRGVLPAVELAIEQIRNESLLRPYFLDLRLYDTECDNAKGLKAFYDAIKYGPNHLMVFGGVCPSVTSIIAESLQGWNLVQLSFAATTPVLADKKKYPYFFRTVPSDNAVNPAILKLLKHYQWKRVGTLTQDVQRFSEVRNDLTGVLYGEDIEISDTESFSNDPCTSVKKLKGNDVRIILGQFDQNMAAKVFCCAYEENMYGSKYQWIIPGWYEPSWWEQVHTEANSSRCLRKNLLAAMEGYIGVDFEPLSSKQIKTISGKTPQQYEREYNNKRSGVGPSKFHGYAYDGIWVIAKTLQRAMETLHASSRHQRIQDFNYTDHTLGRIILNAMNETNFFGVTGQVVFRNGERMGTIKFTQFQDSREVKVGEYNAVADTLEIINDTIRFQGSEPPKDKTIILEQLRKISLPLYSILSALTILGMIMASAFLFFNIKNRNQKLIKMSSPYMNNLIILGGMLSYASIFLFGLDGSFVSEKTFETLCTVRTWILTVGYTTAFGAMFAKTWRVHAIFKNVKMKKKIIKDQKLLVIVGGMLLIDLCILICWQAVDPLRRTVEKYSMEPDPAGRDISIRPLLEHCENTHMTIWLGIVYAYKGLLMLFGCFLAWETRNVSIPALNDSKYIGMSVYNVGIMCIIGAAVSFLTRDQPNVQFCIVALVIIFCSTITLCLVFVPKLITLRTNPDAATQNRRFQFTQNQKKEDSKTSTSVTSVNQASTSRLEGLQSENHRLRMKITELDKDLEEVTMQLQDTPEKTTYIKQNHYQELNDILNLGNFTESTDGGKAILKNHLDQNPQLQWNTTEPSRTCKDPIEDINSPEHIQRRLSLQLPILHHAYLPSIGGVDASCVSPCVSPTASPRHRHVPPSFRVMVSGL
As for B1, the binding entry in the experiment with HA-Shrm4 (human) was “no binding”.
